# Measurements from patent US11242407B2, “High-affinity anti-MERTK antibodies and uses thereof” (Rgenix, Inc., priority 2019, dated 2022).
# “Also recorded” adds a separate entry of the source.
# T1: MERTK (Homo sapiens, UniProt Q12866)
# T1 sequence (Q12866 21-999): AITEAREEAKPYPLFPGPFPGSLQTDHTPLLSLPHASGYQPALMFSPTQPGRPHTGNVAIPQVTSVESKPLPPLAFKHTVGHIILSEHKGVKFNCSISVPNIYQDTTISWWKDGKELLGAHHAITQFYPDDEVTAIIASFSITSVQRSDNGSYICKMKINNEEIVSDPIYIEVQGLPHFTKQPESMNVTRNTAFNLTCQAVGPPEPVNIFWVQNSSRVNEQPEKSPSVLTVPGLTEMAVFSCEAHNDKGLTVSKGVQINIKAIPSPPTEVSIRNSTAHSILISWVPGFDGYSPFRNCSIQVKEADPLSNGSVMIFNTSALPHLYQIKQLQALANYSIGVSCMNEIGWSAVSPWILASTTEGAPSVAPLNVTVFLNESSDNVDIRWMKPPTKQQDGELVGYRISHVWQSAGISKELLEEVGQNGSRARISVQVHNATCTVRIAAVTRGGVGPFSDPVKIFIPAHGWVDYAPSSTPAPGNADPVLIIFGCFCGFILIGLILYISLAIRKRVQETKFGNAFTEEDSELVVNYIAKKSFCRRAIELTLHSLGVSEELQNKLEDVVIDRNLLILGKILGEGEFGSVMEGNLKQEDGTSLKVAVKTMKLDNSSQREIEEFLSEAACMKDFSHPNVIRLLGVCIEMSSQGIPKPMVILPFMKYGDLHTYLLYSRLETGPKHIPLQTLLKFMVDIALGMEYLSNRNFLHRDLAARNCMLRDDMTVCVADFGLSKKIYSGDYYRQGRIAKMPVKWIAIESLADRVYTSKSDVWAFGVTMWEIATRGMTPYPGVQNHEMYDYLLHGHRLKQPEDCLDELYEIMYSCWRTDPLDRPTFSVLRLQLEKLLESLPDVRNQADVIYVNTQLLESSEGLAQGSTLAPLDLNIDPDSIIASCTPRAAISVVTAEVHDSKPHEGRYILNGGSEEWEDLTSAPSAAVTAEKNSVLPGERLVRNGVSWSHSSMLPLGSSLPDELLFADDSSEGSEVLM
# What was measured:
# [1] = test system: MERTK-expressing M1 macrophages; experiment: Macrophage viability assay, M1; conditions: 4 days of treatment in differentiating medium
# MERTK = target: T1, MERTK; experiment: Internalization assay of z10 and ADCs (pHrodo, surface MERTK by flow cytometry); type: cell-based; set-up: stained with BV421-conjugated antibodies against MERTK to detect surface MERTK levels; endogenous in cells; host or cells: SKMEL5 human melanoma cells; conditions: SKMel5 cells; for MERTK internalization: 6.7 nM pHrodo-labeled article; for MERTK degradation: 6.7 nM, surface MERTK stained with BV421-conjugated MERTK antibody
# Method: Internalization of the antibody was determined by flow cytometry detecting pHrodo fluorescence, which is minimal at neutral pH and maximal in acidic environments, such as the lysosome.
# The cells were trypsinized, strained through a 70 μm filter, and resuspended in FACS buffer (2% BSA, 10 mM EDTA, 25 mM HEPES, 0.1% sodium azide in Ca/Mg-free PBS) containing Human TruStain FcX blocking reagent (Biolegend, 422301). Cells were sequentially stained with BV421-conjugated antibodies against MERTK to detect surface MERTK levels (Biolegend, 367603) for 20 min on ice, and then stained with Fixable Viability Dye (eFluor 780) (Thermofisher, 65-0865-14) for 20 min on ice.
# The Mean Fluorescence Intensities (MFI) of pHrodo and BV-421 were analyzed with LSRFortessa flow cytometer (BD Biosciences) and compensated data were plotted with GraphPad Prism. The MFI of pHrodo was normalized with Degree of Labeling (DOL) of pHrodo-labeled IgG, z10, z10-MMAE and z10-SN-38. DOL was calculated from A280 and A560 absorbance of the protein after labeling, according to the formula provided by the manufacturer.
# [2] = test system: MERTK-expressing M2 macrophages; experiment: Macrophage viability assay, M2; conditions: 4 days of treatment in differentiating medium
# [3] = test system: MDA-MB-231-LM2 TNBC cells; experiment: Metastasis assay, z10-MMAE; type: in vivo; conditions: NSG mice, tail vein injection, i.p. dosing, compared to IgG-MMAE
# Method: MDA-MB-231 LM2 TR triple negative breast cancer cells (received from Prof. Sohail Tavazoie, Rockefeller University, NYC) harboring a luciferase reporter gene (Minn et al., Nature. 2005 Jul. 28; 436(7050): 518-524) were cultured in D10F culture medium (DMEM Life Technologies, 11965-092, 10% FBS Sigma, F4135-500 ml, 1% NEAA Fisher, 11140-050, 1% sodium pyruvate Fisher, 11360-070, 1% Hepes Fisher, 15630-080 and 1% Pen/Strep Fisher, 15140-122. On the day of injection, cells were washed with DPBS (Fisher, 14190-144) and detached using 3 mL of 0.25% Trypsin-EDTA (Fisher, 25200-056) per 15 cm cell culture dish for 5 min in a 37° C. cell culture incubator. Detached cells were resuspended in 5 mL of D1F, counted using a hemocytometer and centrifuged at 220×g for 5 min at RT. The pellet was resuspended in DPBS at a concentration of 500,000 cells/mL. 8-week-old NSG female mice (Jackson, 005557) were exposed to a small animal heat lamp (Morganville Scientific, HL0100) for 2-3 minutes. 100 μL of the cell suspension (50'000 cells) was injected into the dilated lateral tail vein of female 8-week old NSG mice.
# Lung colonization was monitored using IVIS imaging upon i.p. administration of 150 mg/kg D-luciferin (Thermofisher Scientific, Waltham, Mass.). […] Mann-Whitney U-test, one tailed was used to assess significance of the metastasis as measured by bioluminescence imaging.
# RPMI8226 cells = experiment: Cancer cell line viability assay of ADCs, RPMI8226; type: cell-based, human; conditions: RPMI8226 multiple myeloma cells, 7 days, compared to IgG conjugate or IgG control
# From the text: (§1) Cancer Cell Line Viability Assay
# SKMEL5 cells = experiment: Cancer cell line viability assay of ADCs, SKMel5; type: cell-based, human; conditions: SKMel5 melanoma cells, 7 days, compared to IgG conjugate or IgG control
# From the text: as §1
Molecule,viability of M1 macrophages (CellTiter-Glo 2.0) [1],MERTK internalization (MERTK),MERTK degradation (MERTK),viability of M2 macrophages (CellTiter-Glo 2.0) [2],lung colonization (bioluminescence imaging) [3],cell viability (CellTiterGlo) (RPMI8226 cells),cell viability (CellTiterGlo) (SKMEL5 cells)
z10-MMAE (conjugate) heavy: QVQLVQSGAEVKKPGASVKVSCKASGYTFTNYGMNWVRQAPGQGLEWMGWINTYTGEPTYADDFKGRVTFTTDTSTSTAYMELRSLRSDDMAVYYCARKSTVVSRYFDVWGQGTTVTVSSASTKGPSVFPLAPSSKSTSGGTAALGCLVKDYFPEPVTVSWNSGALTSGVHTFPAVLQSSGLYSLSSVVTVPSSSLGTQTYICNVNHKPSNTKVDKRV[human IgG1 Fc omitted] light: DIQMTQSPSFLSASVGDRVTITCKASQDVGDAVTWYQQKPGKAPKLLIYWASTRHTGVPDRFSGSGSGTDFTLTISSLQPEDFATYYCQQYRSYPLTFGQGTKLEIKRTVAAPSVFIFPPSDEQLKSGTASVVCLLNNFYPREAKVQWKVDNALQSGNSQESVTEQDSKDSTYSLSSTLTLSKADYEKHKVYACEVTHQGLSSPVTKSFNRGEC,neither z10 nor z10-MMAE nor z10-SN-38 nor the MERTK inhibitor UNC1062 affect the viability,induce MERTK internalization,degrade MERTK to a similar extent; also recorded: induce MERTK degradation,neither z10 nor z10-MMAE nor z10-SN-38 nor the MERTK inhibitor UNC1062 affect the viability,inhibits lung colonization,decreased viability,decreased viability
z10-SN-38 (conjugate) heavy: QVQLVQSGAEVKKPGASVKVSCKASGYTFTNYGMNWVRQAPGQGLEWMGWINTYTGEPTYADDFKGRVTFTTDTSTSTAYMELRSLRSDDMAVYYCARKSTVVSRYFDVWGQGTTVTVSSASTKGPSVFPLAPSSKSTSGGTAALGCLVKDYFPEPVTVSWNSGALTSGVHTFPAVLQSSGLYSLSSVVTVPSSSLGTQTYICNVNHKPSNTKVDKRV[human IgG1 Fc omitted] light: DIQMTQSPSFLSASVGDRVTITCKASQDVGDAVTWYQQKPGKAPKLLIYWASTRHTGVPDRFSGSGSGTDFTLTISSLQPEDFATYYCQQYRSYPLTFGQGTKLEIKRTVAAPSVFIFPPSDEQLKSGTASVVCLLNNFYPREAKVQWKVDNALQSGNSQESVTEQDSKDSTYSLSSTLTLSKADYEKHKVYACEVTHQGLSSPVTKSFNRGEC,neither z10 nor z10-MMAE nor z10-SN-38 nor the MERTK inhibitor UNC1062 affect the viability,induce MERTK internalization,degrade MERTK to a similar extent; also recorded: induce MERTK degradation,neither z10 nor z10-MMAE nor z10-SN-38 nor the MERTK inhibitor UNC1062 affect the viability,–,decreased viability,decreased viability
